In PMC6624267:
No constants are given. Whether binding was seen depends on the method and setting. For some of these results: Binding seen in cells or lysates may run through a third protein. Some binding calls cover weakened binding; strength is not graded here.

Assays:
[1] = biological target: CARD9^1−142/WT-mEos3.1 (yeast) (UniProt Q9H257); assay: FRET or BRET; DAmFRET: mEos3.1 fusions expressed over a range of concentrations in S. cerevisiae, partly photoconverted, read by flow cytometry; self-assembly
[2] = biological target: CARD9^1−142/I107E-mEos3.1 (yeast) (UniProt Q9H257); assay: as above
CARD9^2−97 R29D (human) = CARD9^2−97 R29D (human) (UniProt Q9H257); assay: absorbance at 350 nm + other: negative-stain EM; CARD9^2−97 polymerisation: 1:1 Zn2+-bound CARD, EDTA added at t = 0; 50 mM Tris, 150 mM NaCl, 0.5 mM TCEP, pH 7.0, 25 °C, shaking; NS-EM grids at 90 min; both purified
CARD9^2−97 D43R (human) = CARD9^2−97 D43R (human) (UniProt Q9H257); assay: as above
CARD9^2−97 K58D (human) = CARD9^2−97 K58D (human) (UniProt Q9H257); assay: as above
[3] = biological target: CARD9^2−97 R35Q (clinically identified mutant) (human) (UniProt Q9H257); assay: as above
[4] = biological target: CARD9^2−152/L115I (human) (UniProt Q9H257); assay: condition: only at 25 °C, 10 min after Zn2+ removal; negative-stain EM; CARD9^2–152 constructs purified 1:1 with Zn2+, Zn2+ removed with a twofold excess of EDTA, incubated at the indicated concentration, time and temperature; 50 mM HEPES, 150 mM NaCl, 0.5 mM TCEP, pH 7.0; step: dimers to filaments; both purified
CARD9^2−97 E15R (human) = CARD9^2−97 E15R (human) (UniProt Q9H257); assay: absorbance at 350 nm + other: negative-stain EM; CARD9^2−97 polymerisation: 1:1 Zn2+-bound CARD, EDTA added at t = 0; 50 mM Tris, 150 mM NaCl, 0.5 mM TCEP, pH 7.0, 25 °C, shaking; NS-EM grids at 90 min; both purified
CARD9^2−97 R35E (human) = CARD9^2−97 R35E (human) (UniProt Q9H257); assay: as above
CARD9^2−97 D66R (human) = CARD9^2−97 D66R (human) (UniProt Q9H257); assay: as above

B1: CARD9^1−142/WT-mEos3.1 (yeast) (domain or fragment, UniProt Q9H257 1-142)
chain: MSDYENDDECWSVLEGFRVTLTSVIDPSRITPYLRQCKVLNPDDEEQVLSDPNLVIRKRKVGVLLDILQRTGHKGYVAFLESLELYYPQLYKKVTGKEPARVFSMIIDASGESGLTQLLMTEVMKLQKKVQDLTALLSSKDD
binding [1]: binds

B2: CARD9^1−142/I107E-mEos3.1 (yeast) (domain or fragment, UniProt Q9H257 1-142)
chain: MSDYENDDECWSVLEGFRVTLTSVIDPSRITPYLRQCKVLNPDDEEQVLSDPNLVIRKRKVGVLLDILQRTGHKGYVAFLESLELYYPQLYKKVTGKEPARVFSMIEDASGESGLTQLLMTEVMKLQKKVQDLTALLSSKDD
binding [2]: binds

B3: CARD9^2−97 R29D (domain or fragment, UniProt Q9H257 2-97)
chain: SDYENDDECWSVLEGFRVTLTSVIDPSDITPYLRQCKVLNPDDEEQVLSDPNLVIRKRKVGVLLDILQRTGHKGYVAFLESLELYYPQLYKKVTGK
binding (CARD9^2−97 R29D (human)): no binding (tested: 1 mM)

B4: CARD9^2−97 D43R (domain or fragment, UniProt Q9H257 2-97)
chain: SDYENDDECWSVLEGFRVTLTSVIDPSRITPYLRQCKVLNPRDEEQVLSDPNLVIRKRKVGVLLDILQRTGHKGYVAFLESLELYYPQLYKKVTGK
binding (CARD9^2−97 D43R (human)): no binding (tested: 1 mM)

B5: CARD9^2−97 K58D (domain or fragment, UniProt Q9H257 2-97)
chain: SDYENDDECWSVLEGFRVTLTSVIDPSRITPYLRQCKVLNPDDEEQVLSDPNLVIRDRKVGVLLDILQRTGHKGYVAFLESLELYYPQLYKKVTGK
binding (CARD9^2−97 K58D (human)): no binding (tested: 1 mM)

B6: CARD9^2−97 R35Q (clinically identified mutant) (domain or fragment, UniProt Q9H257 2-97)
chain: SDYENDDECWSVLEGFRVTLTSVIDPSRITPYLQQCKVLNPDDEEQVLSDPNLVIRKRKVGVLLDILQRTGHKGYVAFLESLELYYPQLYKKVTGK
binding [3]: no binding

B7: CARD9^2−152/L115I (domain or fragment, UniProt Q9H257 2-152)
chain: SDYENDDECWSVLEGFRVTLTSVIDPSRITPYLRQCKVLNPDDEEQVLSDPNLVIRKRKVGVLLDILQRTGHKGYVAFLESLELYYPQLYKKVTGKEPARVFSMIIDASGESGITQLLMTEVMKLQKKVQDLTALLSSKDDFIKELRVKDS
binding [4]: no binding

B8: CARD9^2−97 E15R (domain or fragment, UniProt Q9H257 2-97)
chain: SDYENDDECWSVLRGFRVTLTSVIDPSRITPYLRQCKVLNPDDEEQVLSDPNLVIRKRKVGVLLDILQRTGHKGYVAFLESLELYYPQLYKKVTGK
binding (CARD9^2−97 E15R (human)): no binding (tested: 1 mM)

B9: CARD9^2−97 R35E (domain or fragment, UniProt Q9H257 2-97)
chain: SDYENDDECWSVLEGFRVTLTSVIDPSRITPYLEQCKVLNPDDEEQVLSDPNLVIRKRKVGVLLDILQRTGHKGYVAFLESLELYYPQLYKKVTGK
binding (CARD9^2−97 R35E (human)): no binding (tested: 1 mM)

B10: CARD9^2−97 D66R (domain or fragment, UniProt Q9H257 2-97)
chain: SDYENDDECWSVLEGFRVTLTSVIDPSRITPYLRQCKVLNPDDEEQVLSDPNLVIRKRKVGVLLRILQRTGHKGYVAFLESLELYYPQLYKKVTGK
binding (CARD9^2−97 D66R (human)): no binding (tested: 1 mM)
